# This is one part of the list.
# How the values were obtained:
# [1] = tested on: HSkMC (human skeletal muscle cells); assay: cytotoxicity call (relative viability < 0.9); conditions: 10 µM
# [2] = tested on: HepG2; assay: cytotoxicity call (relative viability < 0.9); conditions: 10 µM
# [3] = tested on: S. aureus RN4220; assay: growth inhibition call (relative growth <= 0.2); conditions: 50 µM
SMILES,cytotoxicity call [1],cytotoxicity call [2],growth inhibition call [3]
C[C@H]1CN([C@@H](C)CO)C(=O)c2c(c3ccccc3n2C)-c2ccccc2CO[C@@H]1CN(C)C(=O)Nc1ccc(-c2ccccc2)cc1,inactive,inactive,inactive
C[C@@H]1CCCCO[C@H](CN(C)Cc2ccncc2)[C@H](C)CN([C@@H](C)CO)C(=O)c2cc(NC(=O)C3CCCCC3)ccc2O1,inactive,active,inactive
O=C(C[C@@H]1C[C@H]2c3cc(NC(=O)c4ccc5c(c4)OCO5)ccc3O[C@H]2[C@H](CO)O1)NCC(F)(F)F,inactive,inactive,inactive
C[C@H]1CCCCO[C@@H](CN(C)Cc2ccc(C(F)(F)F)cc2)[C@@H](C)CN([C@@H](C)CO)C(=O)c2cc(N(C)C)ccc2O1,inactive,inactive,inactive
C[C@@H]1CCCCO[C@@H](CN(C)CC2CC2)[C@H](C)CN([C@@H](C)CO)C(=O)c2cc(NC(=O)CCC(F)(F)F)ccc2O1,inactive,inactive,inactive
C[C@@H]1CN([C@H](C)CO)C(=O)c2cc(NC(=O)NC3CCCCC3)ccc2O[C@H]1CN(C)Cc1ccc(C(F)(F)F)cc1,inactive,inactive,inactive
COc1ccc(NC(=O)Nc2cccc3c2O[C@@H](CN(C)Cc2ccc(-c4ccccc4)cc2)[C@H](C)CN([C@H](C)CO)C3=O)cc1,inactive,active,inactive
COc1ccc(S(=O)(=O)N(C)C[C@@H]2Oc3ccc(NC(=O)C4CC4)cc3CC(=O)N([C@H](C)CO)C[C@@H]2C)cc1,inactive,inactive,inactive
C[C@@H]1CCCCO[C@@H](CN(C)C(=O)Nc2ccc(C(F)(F)F)cc2)[C@H](C)CN([C@H](C)CO)C(=O)c2cc(NC(=O)Nc3cccc4ccccc34)ccc2O1,inactive,inactive,inactive
C[C@H](CO)N1C[C@H](C)[C@@H](CN(C)Cc2ccccc2)OCCCC[C@H](C)Oc2ccc(NC(=O)Nc3ccc(F)cc3)cc2C1=O,inactive,active,inactive
Cc1noc(C)c1S(=O)(=O)Nc1ccc2c(c1)C(=O)N([C@H](C)CO)C[C@H](C)[C@@H](CN(C)S(=O)(=O)c1cn(C)cn1)O2,inactive,inactive,inactive
C[C@@H]1CN([C@H](C)CO)C(=O)c2cccc(NC(=O)C3CCCCC3)c2O[C@@H]1CN(C)Cc1ccc(C(=O)Nc2ccccc2N)cc1,inactive,inactive,inactive
COc1cccc(S(=O)(=O)Nc2ccc3c(c2)[C@@H]2C[C@H](CC(=O)N4CCCCC4)O[C@@H](CO)[C@@H]2O3)c1,inactive,inactive,inactive
CCOC(=O)CSc1nnc2c3sc4nc(N5CCOCC5)c5c(c4c3ncn12)CC(C)(C)OC5,inactive,active,inactive
C[C@@H]1CCCCO[C@H](CN(C)C(=O)Nc2ccc(F)cc2)[C@@H](C)CN([C@H](C)CO)C(=O)c2cc(NS(=O)(=O)c3cccs3)ccc2O1,inactive,inactive,inactive
O=C1CSC(=S)N1,inactive,inactive,inactive
C[C@@H]1CN([C@H](C)CO)C(=O)c2cc(NC(=O)c3ccncc3)ccc2O[C@@H](C)CCCCO[C@@H]1CN(C)CC1CCCCC1,inactive,inactive,inactive
COc1ccc(NC(=O)Nc2ccc3c(c2)C(=O)N([C@H](C)CO)C[C@H](C)[C@H](CN(C)S(=O)(=O)c2cccs2)OCCCC[C@H](C)O3)cc1,inactive,inactive,inactive
COCC#Cc1cnc2c(c1)C(=O)N([C@H](C)CO)C[C@H](C)[C@H](CN(C)C(C)=O)O2,inactive,inactive,inactive
C[C@@H]1CN([C@H](C)CO)C(=O)c2cc(NC(=O)Nc3cccc4ccccc34)ccc2O[C@@H](C)CCCCO[C@@H]1CN(C)CC1CCCCC1,active,active,inactive
Cc1ccc(S(=O)(=O)Nc2ccc3c(c2)C(=O)N([C@@H](C)CO)C[C@H](C)[C@H](CN(C)C(=O)c2ccccc2)OCCCC[C@@H](C)O3)cc1,inactive,inactive,inactive
C[C@@H]1CN([C@@H](C)CO)S(=O)(=O)c2ccc(C#CCN(C)C)cc2O[C@H]1CN(C)C(=O)c1ccccc1F,inactive,inactive,inactive
C[C@@H]1CN([C@@H](C)CO)C(=O)c2cccc(NC(=O)Nc3ccccc3)c2O[C@H]1CN(C)Cc1ccc(Cl)c(Cl)c1,inactive,active,inactive
Cc1noc(C)c1S(=O)(=O)Nc1ccc2c(c1)C(=O)N([C@@H](C)CO)C[C@H](C)[C@H](CN(C)Cc1ccc(C(F)(F)F)cc1)OCCCC[C@H](C)O2,inactive,inactive,inactive

# — the antibiotic and cytotoxicity screens of Wong et al. (2023)
